Where “and” joins values, the source holds several entries; their conditions need not be identical. Equal entries are not always repeated.
Biological target: T1, TSPAN8 Protein, Human, Recombinant (SinoBiological, 15683-H07H) (human, UniProt P19075 110-205)
T1 construct: domain: LEL; Bought; also called LEL protein of TSPAN8; LEL region peptide of TSPAN8
T1 sequence (looked up): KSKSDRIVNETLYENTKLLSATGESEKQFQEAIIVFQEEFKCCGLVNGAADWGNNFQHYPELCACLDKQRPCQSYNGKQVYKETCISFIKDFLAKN
Experiment: ELISA, antigen coated at 1 µg/mL, detection with Goat Anti-Human Kappa-HRP, chemiluminescence
Description: Specifically, 1 µg/mL of TSPAN8 Protein, Human, Recombinant (SinoBiological, 15683-H07H) or Human CellExp CD3 epsilon & CD3 delta Heterodimer, Human Recombinant (BioVision, P1183-10) diluted with PBS was added to a 384-Well White Plates, MaxiSorp (Nunc, 460372) at 30 µL/well. After standing still at 4° C. overnight, supernatant was removed, and Blocking One (Nacalai Tesque, 03953-95) was added thereto at 120 µL/well. After standing still at room temperature for 1 hour, supernatant was removed, and the resultant was washed with TBST buffer (Thermo Fisher Scientific, 28360) twice. The anti-TSPAN8(16B11)-anti-CD3 bispecific antibody diluted with TBST containing 10% Blocking One was added thereto at 30 µL/well, followed by standing still at room temperature for 1 hour. The resultant antibody solution was removed, washed with TBST buffer twice, Goat Anti-Human Kappa, Mouse ads-HRP (Southern Biotech, 2061-05) diluted by 5000 times with TBST containing 10% Blocking One was added thereto in an amount of 30 µL/well, and the resultant was stand still at room temperature for 30 minutes. […] A reaction was performed at room temperature for 15 minutes, and then chemiluminescence was measured with ARVO X3 (Perkin Elmer).

B1: anti-TSPAN8(16B11)-anti-CD3 bispecific antibody (bispecific antibody, human IgG1, kappa, L234A L235A, N297G)
heavy: QVQLVESGGGVVQPGGSLRLSCAASGFTFSSYGMHWVRQAPGKGLEWVAVIWYDGRNKYYADSVKGRFTISRDNSKNTLYLQMNSLRAEDTAVYYCTRDHSGSGSYYIDYWGQGTLVTVSSASTKGPSVFPLAPSSKSTSGGTAALGCLVKDYFPEPVTVSWNSGALTSGVHTFPAVLQSSGLYSLSSVVTVPSSSLGTQTYICNVNHKPSNTKVDKKVEPKSCDKTHTCPPCPAPEAAGGPSVFLFPPKPKDTLMISRTPEVTCVVVDVSHEDPEVKFNWYVDGVEVHNAKTKPREEQYGSTYRVVSVLTVLHQDWLNGKEYKCKVSNKALPAPIEKTISKAKGQPREPQVYTLPPSRDELTKNQVSLSCAVKGFYPSDIAVEWESNGQPENNYKTTPPVLDSDGSFFLVSKLTVDKSRWQQGNVFSCSVMHEALHNHYTQKSLSLSPGK
light: EIAMTQSPATLSVSPGERATLSCRASQSVSSNLAWYQQKPGQAPRLLIYGASTRATGLPARFSGSGSGTEFTLTISSLQSEDFAVYYCQQYNNFWTFGQGTKVEIKRTVAAPSVFIFPPSDEQLKSGTASVVCLLNNFYPREAKVQWKVDNALQSGNSQESVTEQDSKDSTYSLSSTLTLSKADYEKHKVYACEVTHQGLSSPVTKSFNRGEC
scFv: EVQLVESGGGLIQPGGSLRLSCAASGFTFNTYAMNWVRQAPGKCLEWVARIRSKYNNYATYYADSVKDRFTISRDDSKSTLYLQMNNLRAEDTAVYYCVRHGNFGNSYVSWFAYWGQGTLVTVSSGKPGSGKPGSGKPGSGKPGSQAVVTQEPSLTVSPGGTVTLTCRSSTGAVTTSNYANWVQQKPGQAPRGLIGGTNKRAPGTPARFSGSLLGDKAALTLSGAQPEDEAEYYCALWYSNLWVFGCGTKVTVL[no letters for human IgG1 Fc with C220S L234A L235A N297G T366W (EU numbers)]
notes: LALA, N297G, T366W); also called anti-TSPAN8/anti-CD3 bispecific antibody; anti-TSPAN8-anti-CD3 bispecific antibody
EC50: 1 µg/mL and 8.1 nM

From patent US20230348587A1 (Astellas, published 2023)
